Results from PMC12040169 (PLOS Biology, 2025).
The list shows a part of the results.

The compounds below were run on T1, C. trachomatis L2/434/Bu expressing GFP (CTL2-GFP). Conditions: total inclusion area; 28.5 h, 10 µM; inhibitor.
T1 construct: L2/434/Bu GFP intracellular growth in HeLa cells
Parameters: species or system HeLa; C. trachomatis total inclusion area by high-content imaging, normalised to DMSO
Procedure, shortened: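 Imaging read-out: GFP inclusions and Hoechst nuclei captured by high-content imaging after fixation. Inclusion area/number = chlamydial growth; nuclei count = host cell viability. MIC calculated per earlier method.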

Row | Structure (SMILES) | % of control remaining
1 | Nc1ccccc1Sc1ncccc1C(F)(F)F [CBK093758] | 111.474
2 | c1c2c(cc3sc(N4CCCCC4)nc13)OCCO2 [CBK287497] | 82.5692
3 | Nc1nonc1-n1nnc(C(=O)N/N=C/c2ccc([N+](=O)[O-])cc2)c1-c1ccccc1 [CBK261992] | 96.8751
4 | CC(NC(=O)c1c(Cl)c(Cl)c(Cl)c(Cl)c1C(=O)O)c1cccs1 (stereo not drawn) [CBK264722] | 105.369
5 | CC(C)(CNC(=O)Cn1cc(C(=O)NC2CCCCC2)ccc1=O)c1ccccc1F [CBK286099] | 94.1008
6 | CNc1snc(N2CCOCC2)c1C#N [CBK011453] | 92.1488
7 | Cc1nn(C)c(C)c1CCC(=O)N1CCc2ncc(Cl)cc2C1 [CBK284851] | 94.5164
8 | O=S(=O)(NC(c1c[nH]c2ccccc12)C(Cl)(Cl)Cl)c1ccccc1 (stereo not drawn) [CBK263279] | 76.8476
9 | Cc1c(NC(=O)CSCc2ccc(Cl)cc2Cl)cccc1C(=O)O [CBK131704] | 112.703
10 | CC(CC(=O)NCC1(C)COC1)n1cnc2ccccc21 (stereo not drawn) [CBK281755] | 105.836
11 | CC1(C)CC(=O)C2=C(C1)Nc1nn(-c3ccccc3)c(O)c1C2c1cccs1 (stereo not drawn) [CBK266333] | 126.056
12 | O=C(Cc1ccc(Cl)c(Cl)c1)N1CCN(c2ncccn2)CC1 [CBK144497] | 104.911
13 | COC(=O)CCCNS(=O)(=O)c1ccc([N+](=O)[O-])cc1 [CBK261172] | 73.9493
14 | CCOC(=O)c1sc2nc(C(C)N3CCOCC3)[nH]c(=O)c2c1C (stereo not drawn) [CBK305862] | 62.7283
15 | COc1cc(Nc2cncc(-c3ccc(O)cc3)n2)c(Cl)cc1C(=O)NCC1CCCO1 (stereo not drawn) [CBK126468] | 68.3223
16 | CN(C)c1cccc(Nc2ccc(/C=C/c3ccccc3)cn2)c1 [CBK036984] | 64.186
17 | O=C(NC(=O)N1CCC2(C1)NCCc1c2[nH]c2ccccc12)c1ccccc1 (stereo not drawn) [CBK046985] | 102.102
18 | c1ccc2sc(SCCN3CCCCC3)nc2c1 [CBK016366] | 113.489
19 | Cc1c(C(=O)NC(C)c2ccncc2)oc2c(F)cccc12 (stereo not drawn) [CBK282105] | 75.5139
20 | CCOC(=O)C1CCCN(C(=O)Cn2cnc(-c3cccs3)cc2=O)C1 (stereo not drawn) [CBK304210] | 101.572
21 | CCCC/C=C/c1cn2ccnc2c(NCCc2cccnc2)n1 [CBK066235] | 123.569
22 | O=c1cc(-c2ccccc2)nc(SCc2nc(-c3cccs3)no2)[nH]1 [CBK268416] | 78.4274
23 | CC(=O)[C@H]1C[C@@H](CC(=O)NCc2csc(-c3ccccc3)n2)C1(C)C [CBK092335] | 93.6189
24 | CNC(=O)C1CCN(S(=O)(=O)c2ccc(C(C)(C)C)cc2)CC1 [CBK051544] | 59.299
25 | CC(=O)N1CC2(CCCC2)c2c(F)cccc21 [CBK306339] | 71.5407
26 | CC(=O)Nc1ccc(C(=O)CSc2nnc(C)o2)cc1 [CBK267851] | 91.1802

Row | Structure (SMILES) | % of control remaining
27 | O=C1CC(c2nc(-c3ccncc3)no2)CN1c1ccc2c(c1)OCO2 (stereo not drawn) [CBK288583] | 111.876
28 | O=C(Nc1cccnc1)c1cnc2cc(Cl)ccc2c1O [CBK107353] | 107.588
29 | O=C(NCCO)c1ccc(CSc2nc3sc4c(c3c(=O)[nH]2)CCCC4)cc1 [CBK263522] | 97.9692
30 | Nc1ccccc1Sc1cc(C(F)(F)F)ccn1 [CBK093761] | 104.38
31 | Cc1c(NC(=O)c2ccc([N+](=O)[O-])o2)cccc1-c1nc2ccccc2s1 [CBK263051] | 80.8099
32 | COc1ccccc1CC(=O)N1[C@H](Cc2ccccc2)C[C@@H]2NCCCCC[C@H]21 [CBK285978] | 107.532
33 | COc1cc(-c2nc(N)cc3cccnc23)cc(OC)c1OC [CBK061892] | 81.0368
34 | CSc1ccc(-c2cn3ccnc3c(NCCc3ccncc3)n2)cc1 [CBK066479] | 100.857
35 | COc1nc(NCCN2CCOCC2)nc(Nc2ccccc2)n1 [CBK027298] | 108.037
36 | CN(C)CCN1CCN(c2ccc(-c3ccc(OC(F)(F)F)cc3)cn2)CC1 [CBK036796] | 92.9159
37 | COC(=O)c1c(NC(=O)COc2ccccc2Cl)sc2c1CCC(c1ccccc1)C2 (stereo not drawn) [CBK265456] | 104.481
38 | Fc1ccc(-c2nccnc2NCc2ccncc2)cc1 [CBK088964] | 109.913
39 | COc1ccc(OC)c(C(O)CN2CCc3sccc3C2c2cccs2)c1 (stereo not drawn) [CBK285532] | 76.325
40 | COc1ccc(CCC(=O)N2CCCc3c(cnn3C)C2)cc1 [CBK285326] | 87.5543
41 | CC(C)CC(Nc1ncnc2c1oc1ccccc12)C(=O)O (stereo not drawn) [CBK293974] | 103.573
42 | O=C(Nc1cccc(OC(=O)c2cccc(S(=O)(=O)N3CCOCC3)c2)c1)c1ccccc1 [CBK261365] | 109.547
43 | Cc1noc(C)c1C(=O)N1CCC(c2ccncc2)CC1 [CBK282334] | 76.5716
44 | CC1(C)Cc2nc(N3CCOCC3)ncc2C(NC(=O)NC(C)(C)C)C1 (stereo not drawn) [CBK306978] | 82.7144
45 | COc1ccc([C@@H]2CN(C)C[C@H]2NC(=O)Nc2ccc(Cl)c(Cl)c2)cc1OC [CBK081111] | 6.886
46 | CC[C@@H]1CCCCN1C(=O)c1ccc(Cl)c(C)c1 [CBK084565] | 72.123
47 | O=C(COc1ccccc1)N1CCC(c2cc3cnccc3[nH]2)CC1 [CBK283449] | 86.3688
48 | CC(C)C[C@@H]1N[C@H](C(=O)NC2CCC2)Cc2cn(Cc3nccn3C)c3cccc1c23 [CBK289422] | 105.081
49 | COc1ccc(S(=O)(=O)NCc2ccc3c(c2)OCO3)cc1C(=O)O [CBK264070] | 100.51
50 | COc1ccc(Cc2nnc(SCC(=O)Nc3ccc(Br)c(C)c3)n2C)cc1 [CBK265816] | 67.9725
51 | O=C(Nc1ccccc1)O[C@@H]1CO[C@H]2[C@@H]1OC[C@@H]2Nc1nccc(-c2cccs2)n1 [CBK289513] | 91.9009
